# PubChem BioAssay AID463173 (ICCB-Longwood Screening Facility, Harvard Medical School, 2010)
# Hit rate of the full screen: of about 52,000 compounds, about 1,700 (3.3%) were called active. Rule as the data show it: active = survival mostly below about 52% (no sharp cut-off); inactive = mostly above about 56%. The list shows a part of the results.
# System: Wild type
# Experiment: S. aureus survival, RN4220 and DeltatarO strains – OD600, teichoic acid synthesis inhibitors, primary screen (AID 463173)
# Conditions: S. aureus RN4220 wild type/DeltatarO growth, OD600, 18 h, hits give low values, screened at 18.75 µg/mL (by protocol)
row,Structure (SMILES),survival
1,CNS(=O)(=O)c1cn(CC(=O)Nc2ccc(OC)cc2OC)cc1S(=O)(=O)NC,inactive: 73%
2,Cc1ccc(/C=C/c2onc(C)c2S(=O)(=O)N2CCC(C(=O)Nc3ccc(Br)c(C)c3)CC2)cc1,inactive: 91%
3,CCC(CC)C(=O)Nc1cc(-c2ccccc2F)nn1-c1ccccc1,inactive: 71%
4,Cc1csc2nc(-c3ccc(NS(=O)(=O)c4cc(F)ccc4F)cc3)cn12,inactive: 76%
5,Cc1ccccc1/C=C(\C#N)c1nc(-c2ccc(Cl)cc2)cs1,inactive: 30%
6,COc1cc2c(C)nc(C)c(C#N)c2cc1OC,inactive: 125%
7,COc1ccccc1C(=O)Nc1ccc(C(=O)OCc2cc(=O)n3nc(C)sc3n2)cc1,inactive: 120%
8,CCN(CC)C(=O)Cn1c(=O)n(-c2ccccc2)c(=O)c2c3c(sc21)CCC3,inactive: 88%
9,COc1ccc(CCN2C(=O)CN(C3CCCCCC3)C(=O)C2c2ccc(OC(C)C)c(OC)c2)cc1OC (stereo not given),inactive: 71%
10,Cc1ccc(CNC(=O)c2nnc(Cc3ccc(Cl)cc3)o2)cc1,inactive: 79%
11,CN(C(=O)c1ccc2c(Cl)c3c(nc2c1)CCC3)c1ccccc1F,inactive: 110%
12,Cc1ccc(NC(=O)Cn2c(-c3cncs3)nc3ccccc32)c(Br)c1,inactive: 76%
13,Cc1ccc(CNC(=O)CN2C(=O)C3(SCC(=O)N3c3ccc(F)cc3)c3ccccc32)cc1 (stereo not given),inactive: 73%
14,Cc1c(Cl)cccc1Nc1nc2ccc(C(=O)c3ccccc3)cc2n2cnnc12,inactive: 98%
15,Cc1ccc2c(c1)C1OCCC1C(c1cccs1)N2 (stereo not given),inactive: 111%
16,CC1CN(C(=O)N2CCC(C(=O)NCCCc3ccccc3)CC2)c2ccccc2O1 (stereo not given),inactive: 87%
17,CC(=O)N1CCc2c(sc3c2c(=O)n(Cc2ccccc2)c(=O)n3Cc2cc(C)ccc2C)C1,inactive: 93%
18,CCOc1ccc(Nc2oc(/C=C/c3cccc(OC)c3)nc2C#N)cc1,inactive: 89%
19,CCCCCn1c(CCNC(=O)c2cccc(C)c2)nc2ccccc21,active: 2%
20,O=C(CSc1nc2sc3c(c2c(=O)[nH]1)CCCC3)Nc1nc2c(s1)CCCC2,inactive: 97%

row,Structure (SMILES),survival
1,Cc1cc(C)c2c(n1)sc1c(=O)n(-c3ccccc3C(F)(F)F)nnc12,inactive: 130%
2,CC1(C)Cc2ccccc2C(NN=C2CCCCC2)=N1,inactive: 106%
3,CCSc1nc2c([nH]c3ccccc32)c(=O)n1-c1ccc(F)cc1,inactive: 79%
4,CCc1ccc(CNC(=O)C2CCCN(S(=O)(=O)c3ccc4c(ccn4C)c3)C2)cc1 (stereo not given),inactive: 95%
5,COc1ccc(CNC(=O)CCc2nc(-c3ccc(OC)cc3)no2)cc1,inactive: 79%
6,Nc1nc2c(s1)CCCC2,inactive: 99%
7,CCCCOc1ccc(CNC(=O)c2ccc3c(c2)N(C)C(=O)C2CCCCN32)cc1 (stereo not given),inactive: 88%
8,CCC(=O)N1CCc2cc(CNS(=O)(=O)c3cccs3)ccc21,inactive: 89%
9,CCOC(=O)C(CC)Sc1c(CC)cnc2c1c(=O)n(C)c(=O)n2C (stereo not given),inactive: 72%
10,Cc1ccc(OCCSc2nc3ccc(NC(=O)c4ccc(F)cc4)cc3s2)cc1,inactive: 114%
11,Cc1cccc(C(C)C)c1NC(=O)C(NS(=O)(=O)c1cccc2nsnc12)c1ccccc1 (stereo not given),inactive: 81%
12,Fc1ccc(COC(CN2CCCCC2)CN2CCCCC2)cc1,inactive: 99%
13,COc1ccc(-c2c(C)c3ccc(O)c(CN4CCCC4)c3oc2=O)cc1OC,inactive: 112%
14,Cc1ccc(Cc2cn3cc(-c4ccc(F)cc4)nc3s2)cc1,inactive: 140%
15,COC(=O)CSc1nc2ccccc2n1CC(=O)N1C(C)CCCC1C (stereo not given),inactive: 104%
16,COc1cccc(-c2cn3ncsc3n2)c1,inactive: 80%
17,O/N=C1\CCCc2nnc3c(c21)CCCC3,inactive: 111%
18,Cc1ccccc1CSc1ccc(-c2cccs2)nn1,inactive: 124%
19,Cc1ccc(NC(=O)Cn2cc(C(=O)C3CC3)c3ccccc32)cc1C,inactive: 92%
20,Cc1ccc(S(=O)(=O)NC(C)(C)CN2CCCCC2)cc1,inactive: 81%

row,Structure (SMILES),survival
1,Cc1cc(C)n(-c2nc(C)c(C)c(=O)n2CC(=O)Nc2ccc(OC(F)(F)F)cc2)n1,inactive: 97%
2,Cc1cccc(NC(=O)c2cc(S(=O)(=O)N3CCCCCC3)cn2C)c1C,inactive: 60%
3,Cc1ccc(CNC(=O)c2ccc(Cn3c(=O)c4ccccc4n(CC(=O)Nc4c(C)cc(C)cc4C)c3=O)cc2)cc1,inactive: 68%
4,O=c1cccc2n1CC1CC(C2)N(c2nc(N3CCCCC3)nc(N3CCCCC3)n2)C1 (stereo not given),inactive: 104%
5,COc1ccc(OCC2CNC(=O)O2)cc1 (stereo not given),inactive: 111%
6,CC(C)(N)COc1nonc1N,inactive: 111%
7,O=C(Cc1cccs1)N(c1nnc(-c2ccc(F)cc2)s1)C1CCCC1,inactive: 114%
8,O=C(CN1CCN(c2ccc(F)cc2)CC1)N1CCCC1,inactive: 97%
9,COc1ccc(OC)c(-n2nnc(-c3nc(-c4cc(OC)c(OC)c(OC)c4)no3)c2C)c1,inactive: 84%
10,c1cnc(N2CCN(c3ncc4c(n3)CCNC4)CC2)nc1,inactive: 127%
11,COc1ccc(-c2nc3ccccc3n3c(-c4ccccc4)c4c(=O)n(C)c(=O)n(C)c4c23)cc1OC,inactive: 70%
12,O=c1oc2c3c(ccc2c2ccccc12)OCN(Cc1ccc(Cl)cc1)C3,inactive: 82%
13,COc1cc2c(cc1OC)C(COc1ccc3c(C)cc(=O)oc3c1)N(C(=O)c1ccccc1C)CC2 (stereo not given),inactive: 131%
14,COc1ccc(N2CCN(C(=O)c3cccc4ccccc34)CC2)cc1,inactive: 109%
15,COc1ccc(-n2nnnc2C2CCN(S(=O)(=O)c3ccc(C)cc3)CC2)cc1,inactive: 119%
16,COCCn1c(=O)[nH]c2cc(C(=O)N3CCN(c4ccccc4)CC3)ccc2c1=O,inactive: 69%
17,CC(=O)N1c2ccccc2C(C)(c2ccc(C)cc2)CC1(C)C (stereo not given),active: -2%
18,O=C(NCc1ccccc1)c1cccn1-c1nnc(N2CCCC2)s1,inactive: 47%
19,CN1C(=O)c2ccccc2Sc2ccc(NC(=O)N3CCN(c4ccccc4)CC3)cc21,inactive: 113%
20,CC(=O)N1CCc2cc(S(=O)(=O)NC(Cc3ccccc3)C(=O)Nc3cc(C)ccc3C)ccc21 (stereo not given),inactive: 72%
